Assay results published in the supplement of paper PMC3334620.
Over roughly 33,000 sequences, “E-score (-0.5 to 0.5)” has its median near -0.053; the highest 2% begin near 0.37. This is one part of the list.

target: Hap1 (UniProt P0CE41); assay: PBM E-score (8-mer binding enrichment) (E-score (-0.5 to 0.5)); higher = stronger / more preferred TF binding; most listed sequences are background and not binding sites; settings: protein concentration: 200 nM; construct: GST-DNA-binding domain
Procedure, shortened: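 Yeast transcription factors carrying a GST tag, as full-length proteins or DNA-binding domains, were produced by PURExpress in vitro transcription/translation. About 100-200 nM protein was applied to universal all-10-mer Agilent arrays, double-stranded by primer extension on fresh or once-stripped slides. Bound protein was detected with fluorescent anti-GST, and scans were normalised with masliner. The Universal PBM Analysis Suite gave each ungapped eight-base word, pooled with its reverse complement, an E-score, a modified Wilcoxon-Mann-Whitney statistic.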

UniProt P0CE41, sequence (P0CE41 whole entry, the tested form may be a part): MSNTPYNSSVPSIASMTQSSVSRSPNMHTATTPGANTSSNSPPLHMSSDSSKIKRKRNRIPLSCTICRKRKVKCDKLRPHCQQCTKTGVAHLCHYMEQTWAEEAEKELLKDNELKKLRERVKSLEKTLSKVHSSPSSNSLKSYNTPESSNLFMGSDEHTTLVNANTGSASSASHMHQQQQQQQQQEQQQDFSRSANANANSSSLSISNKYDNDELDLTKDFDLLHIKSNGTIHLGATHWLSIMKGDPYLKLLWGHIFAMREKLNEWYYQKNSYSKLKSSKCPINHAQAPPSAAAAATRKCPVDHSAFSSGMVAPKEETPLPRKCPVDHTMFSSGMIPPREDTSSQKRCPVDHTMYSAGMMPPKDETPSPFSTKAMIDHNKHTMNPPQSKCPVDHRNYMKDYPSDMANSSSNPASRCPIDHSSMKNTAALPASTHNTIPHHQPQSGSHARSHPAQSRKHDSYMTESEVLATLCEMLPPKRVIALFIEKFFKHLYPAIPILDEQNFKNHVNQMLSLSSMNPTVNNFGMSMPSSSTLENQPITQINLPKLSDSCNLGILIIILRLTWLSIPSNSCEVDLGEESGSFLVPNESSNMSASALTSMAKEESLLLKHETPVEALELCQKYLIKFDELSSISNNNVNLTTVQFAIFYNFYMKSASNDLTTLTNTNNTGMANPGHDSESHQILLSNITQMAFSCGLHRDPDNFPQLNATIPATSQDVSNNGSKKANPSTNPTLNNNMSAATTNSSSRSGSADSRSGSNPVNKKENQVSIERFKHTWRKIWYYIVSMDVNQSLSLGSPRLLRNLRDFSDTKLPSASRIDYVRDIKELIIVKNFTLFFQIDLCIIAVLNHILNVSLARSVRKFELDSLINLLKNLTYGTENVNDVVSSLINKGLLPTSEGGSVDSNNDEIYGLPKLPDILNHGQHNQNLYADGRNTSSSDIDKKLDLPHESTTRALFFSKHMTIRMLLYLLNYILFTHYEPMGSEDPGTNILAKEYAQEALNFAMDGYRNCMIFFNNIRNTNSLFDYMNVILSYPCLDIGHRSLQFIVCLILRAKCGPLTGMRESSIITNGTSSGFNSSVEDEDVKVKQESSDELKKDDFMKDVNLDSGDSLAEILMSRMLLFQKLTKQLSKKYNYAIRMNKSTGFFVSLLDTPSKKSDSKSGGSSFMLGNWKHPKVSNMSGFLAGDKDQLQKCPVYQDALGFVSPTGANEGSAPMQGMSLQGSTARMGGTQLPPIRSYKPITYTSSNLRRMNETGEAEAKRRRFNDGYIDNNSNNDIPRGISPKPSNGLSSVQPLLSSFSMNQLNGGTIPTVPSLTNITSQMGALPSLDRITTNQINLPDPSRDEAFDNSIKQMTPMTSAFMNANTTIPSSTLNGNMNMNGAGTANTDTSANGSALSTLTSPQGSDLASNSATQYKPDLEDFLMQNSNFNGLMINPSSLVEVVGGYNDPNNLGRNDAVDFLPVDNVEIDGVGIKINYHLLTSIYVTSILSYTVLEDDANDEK

Sequence | PBM E-score
AAAACATA | -0.0586
GACGGATC | 0.132
AATACGTG | -0.187
GCCAGCTA | -0.211
CGGGTGAA | 0.317
GGCCGGAC | 0.398
CCCGCGCG | 0.3
GAGAGAAA | -0.0792
GGACCCAA | 0.124
GCTATTCA | -0.0571
TAACCGTA | -0.0318
ATCCAGGG | -0.113
AGTCCGGG | 0.393
CTGCCTAC | -0.186
CGTCGCCA | -0.204
AATCCAGA | -0.011
ATGCGGCG | 0.133
GTCCTGAA | -0.205
AACTCGTG | -0.0683
AAACTGTT | 0.0537
AACATTCT | -0.0982
CTGGACAC | -0.0719
CAGAAGAA | -0.196
TCGGACGA | 0.414
ACTAAAAT | -0.129

Sequence | PBM E-score
AGCAACTG | -0.112
CTATTCCA | -0.0505
AGGATCAT | -0.168
AATCGCCC | 0.0407
GCGGGGTA | 0.123
AGCCCGGG | 0.36
GCAATCAA | -0.199
CCGCGACA | 0.105
ATTACCCC | 0.16
GGTGAGGA | -0.00088
TACAATGA | -0.239
CTAAATAA | -0.13
CGGTCATA | 0.411
AAGCACGT | -0.129
TAGCAAGA | -0.249
ATTTGGAC | -0.185
GCTACTAC | 0.0744
CATAGAGA | -0.215
CCGGACAG | 0.382
ACCACCGC | 0.14
CAATTACA | -0.0776
AATGGCAA | -0.168
AGACGCTA | -0.169
CCCGCCTC | -0.00272
CCCGGAAG | 0.358

Sequence | PBM E-score
GGTAGGAC | 0.0611
AGGTCACG | -0.124
ATATTAGC | -0.0105
ATAGCGGC | 0.221
CCTAGCAC | -0.131
AATGACAC | -0.184
CTCGACGC | -0.00713
TAAGATTA | -0.0279
CCAGATGG | -0.21
CCATCTAC | -0.0218
CTGTACAC | -0.128
ACGTTCAC | -0.13
ACTATAGC | -0.074
CGGAAATC | 0.352
AGAACTAC | -0.128
CACCGCTG | -0.0442
GAAGCCAA | -0.145
CGCAAAGA | 0.0599
ATTAATGC | 0.00917
GAATGCAC | -0.00315
ACCCGCTC | -0.0386
ATGGATCG | 0.247
GCTGCTCA | -0.241
CACAAGAG | -0.0458
ATAGGGAA | 0.036

Sequence | PBM E-score
GGCACTCA | -0.285
ATGGCTCG | -0.072
CAGCATGC | -0.178
CGACAAGA | 0.0988
CTCACTCA | -0.213
TGCGCGCA | 0.178
ATCCTTCC | -0.104
AAGCGCGT | 0.086
AAGAGTAG | -0.00909
ACATTCGC | 0.0143
ACCAACGT | -0.225
CGTGAAGC | -0.131
TGAGGAAA | -0.0575
AAGTGGGT | 0.0756
AAGGACGC | -0.0558
ATGAAAAA | -0.063
AGTTTCAG | -0.0274
ACCGGTCT | 0.179
ACGGCTAC | 0.105
CCGGACCC | 0.374
CAGTTAAG | -0.0756
CTGTGAAC | -0.134
CTTTAGCC | 0.0453
GGCCCCTA | -0.0472
CATCGTGA | -0.167

Sequence | PBM E-score
ATAGTGGA | 0.0468
CGTTCGTC | -0.0333
GACAACGA | 0.0366
ATCAATAC | -0.131
GAGATGCC | -0.055
CCCTTATC | 0.199
TAGGTCGA | -0.104
GTAGGCTA | -0.15
ATACAACA | -0.182
ACAAACGG | 0.166
AGAGCTCC | -0.00702
ACTCACTA | -0.19
ATCGGCAG | 0.315
ATACAGAC | -0.152
ATAGAGAC | -0.157
GAGATAAC | 0.216
GTAGATCA | 0.145
GTAAGTAA | -0.0427
CGAGTAGC | 0.109
AAAAGATC | -0.112
TGAAGTAA | -0.107
ACTTAACC | -0.00614
GAGCTCCC | 0.0706
ATCAGGAG | 0.0213
AGCGCCAC | -0.14

Sequence | PBM E-score
AGCTTCAC | -0.218
CTTATTCC | 0.202
CGGCGACC | 0.306
TACCTGGA | -0.107
ACATGCGC | -0.00623
AAGGGGAC | -0.0576
TGCTATAA | -0.149
AATAAATT | 0.0772
GTAATCTA | -0.0403
CACCATGG | -0.302
ACGCGCTC | 0.00375
ATCTACAA | -0.162
CCCTGTCG | -0.0821
AGCCTAAA | -0.137
ATCAGGTA | -0.134
ATAGTGAG | -0.212
AAGTGGAC | -0.0108
CACATGCA | -0.126
GCCACCCC | -0.0465
ACAGACGT | -0.0978
CACATATA | -0.138
TGAAGTCA | -0.0916
CATTGATA | 0.0354
CCCTGGAC | -0.234
GCCTATTA | 0.0453

Sequence | PBM E-score
CACGACAG | -0.122
CATGAACA | -0.122
AATTCTCC | 0.234
AGGCCGCG | 0.0338
CAAACTCG | 0.0982
AGTATGAG | -0.101
CGTTAGAC | 0.0614
ATTCGCAC | 0.0665
GATAGAGA | 0.00974
ACCGGAAT | 0.36
CAAATGAG | -0.115
GAACGGAA | 0.282
AAAACGAA | 0.0585
AGCCCGTC | 0.0072
CGGATGCC | 0.125
AATATTGG | -0.0469
AATGGTTG | 0.0245
GTTCGAAC | 0.0408
CTTAAGGA | -0.0778
ATGCTCTC | -0.159
ACGTGGCG | -0.231
TATATAGA | -0.0775
